Laboratory results reported in paper PMC4336329 (PLoS ONE, 2015).
Out of some 310,000 compounds screened, about 2,200 (0.71%) showed an effect of 50% or more. The effect is printed as a negative number. This is one part of the list.

target: human ether-à-go-go-related gene (hERG) potassium channel (human, UniProt Q12809); test: primary screen, population patch clamp on CHO cells stably expressing hERG
Sequence (Q12809 whole entry, looked up): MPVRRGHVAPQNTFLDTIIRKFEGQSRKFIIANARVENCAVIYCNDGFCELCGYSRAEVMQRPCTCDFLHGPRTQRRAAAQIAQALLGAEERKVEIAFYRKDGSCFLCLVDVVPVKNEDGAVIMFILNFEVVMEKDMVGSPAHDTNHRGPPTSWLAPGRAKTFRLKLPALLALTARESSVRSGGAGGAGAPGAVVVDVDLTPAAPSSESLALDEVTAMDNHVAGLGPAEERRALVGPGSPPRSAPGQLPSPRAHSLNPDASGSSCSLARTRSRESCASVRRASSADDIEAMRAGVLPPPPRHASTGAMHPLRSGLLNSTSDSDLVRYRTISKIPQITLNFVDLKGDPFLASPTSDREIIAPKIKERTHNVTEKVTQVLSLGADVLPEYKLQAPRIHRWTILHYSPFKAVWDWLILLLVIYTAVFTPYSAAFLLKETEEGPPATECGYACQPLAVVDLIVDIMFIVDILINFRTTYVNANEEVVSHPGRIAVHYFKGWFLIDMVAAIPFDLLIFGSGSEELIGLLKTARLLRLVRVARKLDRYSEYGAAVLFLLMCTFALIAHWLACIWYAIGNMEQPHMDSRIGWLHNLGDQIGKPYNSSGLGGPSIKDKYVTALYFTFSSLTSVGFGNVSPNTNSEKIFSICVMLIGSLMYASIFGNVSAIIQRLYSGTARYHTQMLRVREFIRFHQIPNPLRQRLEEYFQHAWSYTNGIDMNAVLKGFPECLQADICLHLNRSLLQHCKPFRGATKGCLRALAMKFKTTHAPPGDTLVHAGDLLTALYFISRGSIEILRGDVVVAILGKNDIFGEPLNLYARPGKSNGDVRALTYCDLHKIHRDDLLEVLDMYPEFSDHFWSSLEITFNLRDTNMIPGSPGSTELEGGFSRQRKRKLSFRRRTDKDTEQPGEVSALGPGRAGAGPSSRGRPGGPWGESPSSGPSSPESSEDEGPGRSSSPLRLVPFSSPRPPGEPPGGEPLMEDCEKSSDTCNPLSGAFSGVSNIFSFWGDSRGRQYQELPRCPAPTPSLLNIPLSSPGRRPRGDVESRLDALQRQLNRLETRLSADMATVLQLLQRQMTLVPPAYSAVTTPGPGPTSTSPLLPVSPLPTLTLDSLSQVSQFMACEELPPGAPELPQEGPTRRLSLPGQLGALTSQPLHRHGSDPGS

Point of comparison: `COc1ccc(C(=O)Nc2cnc3sc(C)nn3c2=O)cc1`, “hERG current change (%, negative = inhibition) at 1uM” value 1.75%. Against it:
- CCOc1ncccc1C(=O)N1CCN(S(=O)(=O)c2cccs2)CC1 — higher, 7.41%
- CC1CN(C(=O)C2CC2)C(C)CN1C(=O)C1CC1 (stereo not drawn) — higher, 4.7%
- O=C(NCCN1CCc2ccccc2C1)C1CCN(S(=O)(=O)N2CCCCC2)CC1 — lower, -7.63%
- COC(=O)c1c(NS(C)(=O)=O)sc2c1CCCC2 — higher, 5.2%
- COc1cccc(NC(=O)CSc2nc3ccccc3nc2N2CCCC2)c1 — lower, -0.785%
- CC1CN(C2=N/C(=C/c3ccc4c(c3)OCO4)C(=O)N2)CC(C)O1 (stereo not drawn) — higher, 11.3%
- COc1ccccc1-c1cc(C(=O)Nc2sc3c(c2C#N)CCC(C)C3)c2ccccc2n1 (stereo not drawn) — higher, 10.4%
- O=C(c1cnc2sccn2c1=O)N1CCCc2ccccc21 — higher, 18.9%
- Cc1cc(C)c(C#N)c(SCc2ccc3c(c2)OCO3)n1 — higher, 6.03%
- CCN(CC)C(=O)N1CCC(NC(=O)Cc2ccccc2)CC1 — higher, 2.25%
- COc1ccccc1OCCSc1nc2ccccc2c(=O)[nH]1 — higher, 8.29%
- CC(=O)Cc1nsc(NC(=O)c2ccc(-c3ccc(Cl)c(Cl)c3)o2)n1 — lower, -0.39%
- Cc1cc([N+](=O)[O-])nn1CCCC(=O)NCc1ccc(F)cc1 — higher, 9.26%
- CCn1nnnc1SCC(=O)NC1CCCC1 — higher, 16.6%
- O=C(CCc1ccccc1)Nc1ccccc1 — higher, 3.09%
- CCOc1ccc(S(=O)(=O)Nc2cccc(OC)c2)cc1 — lower, -5.91%
- CC(/C=C/c1ccccc1)=N\NC(=O)CNC(=O)c1ccccc1Cl — higher, 8.46%
- COc1ccc(CNC(=O)CNC(c2ccccc2)c2ccccc2)cc1OC — lower, -0.607%
- CC1CCCC(C)N1C(=O)Cn1cc(C#N)c2ccccc21 (stereo not drawn) — higher, 10.7%
- COc1ccc(N(CC(=O)Nc2ccc(F)cc2F)S(=O)(=O)c2c(C)nn(C)c2C)cc1 — higher, 11.7%
- COc1cccc(CNC(=O)Cc2csc(Nc3nc(=S)[nH]c4ccccc34)n2)c1 — higher, 11.9%
- CCOC(=O)C1=C(C)N=c2sc(=C(C)C)c(=O)n2C1c1ccc(N(C)C)cc1 (stereo not drawn) — higher, 13.7%
- COc1ccc(NC(=O)CSc2nnc(C3CCCCC3)o2)c(OC)c1 — higher, 10.4%
- CCOC(=O)N1CCN(c2c(N3CCC(N4CCCCC4)CC3)c(=O)c2=O)CC1 — higher, 14.4%
- Cc1nc(Nc2c(Cl)cccc2Cl)sc1C(=O)Nc1ccccc1 — lower, -0.374%
- Cc1ccc(OCCC(=O)OCC(=O)NNC(=O)c2ccccc2)cc1 — higher, 17.8%
- O=C(C1CCN(S(=O)(=O)c2cc(Cl)ccc2Cl)CC1)N1CCCC1 — higher, 23.4%
- O=c1c(-c2cccc3ccccc23)[n+]([O-])c2ccccc2n1O — higher, 9.75%
- C=CCn1c(O)c(C(C)=Nc2cc(OC)ccc2OC)c(=O)[nH]c1=O — higher, 8.03%
- COc1ccccc1NC(=S)NCc1ccccc1Cl — higher, 8.34%
- COc1ccccc1CNC(=O)CNC(=O)Cn1cnc2ccccc2c1=O — higher, 16.1%
- CC(Nc1cc(N2CCOCC2)ccc1[N+](=O)[O-])c1ccccc1 (stereo not drawn) — higher, 8.68%
- CSc1ccccc1OCc1cc(C(=O)NCC(C)(C)N2CCOCC2)no1 — lower, -72.2%
- O=C(CCN1C(=O)c2ccccc2S1(=O)=O)NCc1ccccc1 — higher, 3.99%
- O=C(NCc1ccc2c(c1)OCO2)c1cc2ncc(Br)cn2n1 — higher, 14%
- O=C(NCCn1cccn1)C1CCC(=O)N(CCc2ccccc2)C1 (stereo not drawn) — higher, 9.49%
- CC(C)OP(=O)(OC(C)C)C1(NS(=O)(=O)c2ccc(Cl)cc2)C=C(Cl)C(=O)C(Cl)=C1 — lower, -8.09%
- C/C=C/C=C\C(=O)Nc1cccc(C2=NOC3(C2)C[C@@H](C(N)=O)N(C(=O)/C(C)=C/C)C3)c1 (stereo partly drawn) — higher, 13.7%
- Cc1ccc(C)c(NC(=O)c2ccc(S(=O)(=O)N(C)CC3CCCO3)cc2)c1 (stereo not drawn) — lower, -4.9%
- CN(CC(=O)NCCN1CCN(c2ccccc2)CC1)S(=O)(=O)c1ccc2c(c1)CCC(=O)N2 — higher, 4.69%
- CNC(=S)NNC(=O)c1c(C)nc2cc(C)ccn12 — higher, 6.17%
- CCCCc1ccc(NC(=S)NCCCN2CCOCC2)cc1 — lower, -1.95%
- CCCN1CCN(CC(=O)Nc2cc(OCC)ccc2OCC)CC1.Cl — lower, -23.9%
- CN(C)c1nc(C#N)nc(N2CCOCC2)n1 — higher, 4.15%
- Cc1cc(C)c(NC(=S)N2CCN(c3ccc([N+](=O)[O-])cn3)CC2)cc1C — higher, 9.86%
- CCOC(=O)c1ccc(N2C(=O)CC(NC3CCN(C(=O)c4ccc(F)cc4)CC3)C2=O)cc1 (stereo not drawn) — higher, 14.5%
- Cc1[nH]c2ccc(-c3nnc(SCC(=O)c4ccc(F)cc4)o3)cc2c1C — higher, 23.5%
- O=C(NNC(=O)c1cccs1)c1csc(N2CCOCC2)n1 — higher, 18.6%
- CC(=O)c1c(O)n(C)c(=S)n(-c2ccccc2)c1=O — higher, 17.1%
- Cc1ccc(C(=O)N2CCN(C)CC2)cc1S(=O)(=O)N1CCCCCC1 — lower, -0.13%
- CNc1ccc(Br)cc(C(=O)/C=C/c2ccc(OC)cc2OC)c1=O — higher, 9.87%
- CCc1noc(C)c1C(=O)OC(C)C(=O)Nc1ccccc1OC (stereo not drawn) — higher, 4.52%
- COC(=O)c1ccc(OC(=O)c2cnccn2)cc1 — higher, 13.7%
- Cc1ccc(S(=O)(=O)/N=C2/C=C(Sc3ncn[nH]3)C(=O)c3ccccc32)c(C)c1 — higher, 20.2%
- C=CCN1C(=O)c2ccc(C(=O)OCC(=O)Nc3ccc(S(N)(=O)=O)cc3)cc2C1=O — higher, 7.09%
- Cc1ccc(C)c(-n2c(N)c(C(N)=O)sc2=S)c1 — lower, -5.99%
